Reference: PubChem BioAssay (Tox21)
Values joined by “and” are separate entries in the source; they are usually repeats but may differ in a detail not shown here. Equal values may be shown once. Inconclusive results, whose numbers are uncertain, are shown with a selection of clear calls. No potency is given beside an inconclusive call; the fits are too rough. Active and inactive are the calls of the source. The call rests on the fitted dose curve; in most records, active means well fitted cell-killing curve with a large enough effect in the repeat runs; inconclusive means weak or mixed curves, or effect the other way; inactive means flat fitted curve, though single readings scatter.

Assay: qHTS assay to identify small molecule that activate the aryl hydrocarbon receptor (AhR) signaling pathway - cell viability counter screen (AID 743086); further: nearly all actives have a fitted effect of over 45% in size;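 on viability change, negative = cytotoxic: HepG2 liver cells carrying the AhR DRE luciferase reporter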
Details: HepG2-AhR-luc viability, CellTiter-Fluor, 24 h; series mostly up to 70.3 µM; viability change, negative = cytotoxic: at the top concentration
Source text: U.S. Tox21 Program National Center for Advancing Translational Sciences [NCATS] NIH Chemical Genomics Center [NCGC] U.S. Environmental Protection Agency [EPA] National Institutes of Environmental Health Sciences [NIEHS] National Toxicology Program [NTP] U.S. Food and Drug Administration [FDA] Tox21 Assay overview: The Aryl hydrocarbon Receptor (AhR), a member of the family of basic helix-loop-helix transcription factors, is crucial to adaptive responses to environmental changes. AhR mediates cellular responses to environmental pollutants such as aromatic hydrocarbons through induction of phase I and II enzymes but also interacts with other nuclear receptor signaling pathways A cell based HepG2-AhR-luc assay (HG2L7.5c1 cell line, developed by Dr. Michael S. Denison, University of California at Davis) was used to assess the activation of AhR. HepG2 (human hepatocellular carcinoma) cells were stably transfected with an Ah receptor-responsive firefly luciferase reporter gene plasmid containing 20 dioxin responsive elements and luciferase reporter gene. Increased luciferase activity can be used to identify the compounds that induce AhR activation. The cytotoxicity of the compounds screened against the HepG2-AhR-luc cell line was tested in parallel by measuring the cell viability using CellTiter-Fluor assay in the same wells.
Tox21 Assay Protocol Summary: 4000 cells in 5 uL/well were dispensed into white wall/solid bottom 1536-well plates using a Multidrop Combi (Thermo Fisher Scientific Inc., Waltham, MA) dispenser. After the assay plates were incubated at 37C for 5 h, 23 nL of compound or DMSO vehicle was transferred to the assay plates by a pintool station (Kalypsys, San Diego, CA). The plates were incubated at 37C for 24 hr. For cell viability measurement, 1 ul/well of CellTiter-Fluor reagent (Promega, Madison, WI) was added into the assay plates using a Flying Reagent Dispenser (FRD) (Aurora Discovery, CA),and then the assay plates were incubated at 37C for 30 min. The fluorescence intensity in the plates was measured using a ViewLux plate reader (PerkinElmer, Shelton, CT), followed by the addition of 4 uL of ONE-Glo Luciferase Assay reagent (Promega) using an FRD (Aurora Discovery). After the assay plates were incubated at room temperature for 30 min, luminescence intensity was measured using a ViewLux plate reader (Perkin Elmer).
On the % scale 0 is the no-effect control and ±100 the full control effect; potency means the concentration at half of the fitted maximal effect; tags describe the fitted curve by direction and shape.

Row | Structure (SMILES) | Potency | viability change, negative = cytotoxic
1 | C=C[C@]1(C)C[C@@H](OC(=O)CSC(C)(C)CNC(=O)[C@H](N)C(C)C)[C@]2(C)[C@H](C)CC[C@]3(CCC(=O)[C@H]32)[C@@H](C)[C@@H]1O | active: 3.76 µM | 
2 | O=C(O)c1[nH]n(-c2ccc(S(=O)(=O)O)cc2)c(=O)c1N=Nc1ccc(S(=O)(=O)O)cc1 | inconclusive [falling, full curve, poor fit] | 
3 | CC(C(O)c1ccc(O)cc1)N1CCC(Cc2ccccc2)CC1 (stereo not given) |  | inactive: -28.6%
4 | C=C1C(=O)O[C@H]2[C@H]1CC/C(C)=C\CC[C@@]1(C)O[C@@H]21 | active: 16.8 µM | 
5 | CCN(CC)S(=O)(=O)c1ccc(C(=O)O)cc1 |  | inactive: -4%
6 | CC[C@@H](C(=O)[C@@H](C)[C@@H](O)[C@H](C)CCc1ccc(C)c(O)c1C(=O)O)[C@H]1O[C@](CC)([C@H]2CC[C@](O)(CC)[C@H](C)O2)C[C@@H]1C | active: 29.8 µM | 
7 | COC(F)(F)C(Cl)Cl |  | inactive: 9.47%
8 | COc1ccc(Cl)cc1C |  | inactive: 0.241% [at 95 µM]
9 | CCOCC(C)O (stereo not given) | inconclusive [rising, partial curve, poor fit] | 
10 | CCN(CC)c1ccc(C(=C2C=CC(=[N+](CC)CC)C=C2)c2ccccc2)cc1 | active: 5.96 µM | 
11 | NCCCC[C@H](NC(=O)[C@@H]1CCCN1C(=O)[C@@H]1CSSC[C@H](N)C(=O)N[C@@H](Cc2ccc(O)cc2)C(=O)N[C@@H](Cc2ccccc2)C(=O)N[C@@H](CCC(N)=O)C(=O)N[C@@H](CC(N)=O)C(=O)N1)C(=O)NCC(N)=O | inconclusive [falling, partial curve, poor fit] | 
12 | Cc1ccc(C2(O)CCN(CCCC(=O)c3ccc(F)cc3)CC2)cc1 | inconclusive [falling, single point] | 
13 | O=C(CN1CCN(Cc2ccc3c(c2)OCO3)CC1)N1c2ccccc2Sc2ccccc21 | inconclusive | 
14 | COc1cc2c(cc1O)CCN[C@]21CS[C@@H]2c3c(OC(C)=O)c(C)c4c(c3[C@H](COC1=O)N1[C@@H]2[C@H]2c3c(cc(C)c(OC)c3O)C[C@@H]([C@@H]1O)N2C)OCO4 | inconclusive [falling, full curve, poor fit] | 
15 | CC(C)(S)C(=O)N[C@@H](CS)C(=O)O | inconclusive [falling, partial curve, poor fit] | 
16 | CC(=O)O[C@H]1C(=O)[C@@]2(C)[C@H]([C@H](OC(=O)c3ccccc3)[C@]3(O)C[C@H](OC(=O)[C@H](O)[C@@H](NC(=O)c4ccccc4)c4ccccc4)C(C)=C1C3(C)C)[C@]1(OC(C)=O)CO[C@@H]1C[C@@H]2O | inconclusive [falling, partial curve] | 
17 | CCN(C)C(=O)Oc1cccc([C@H](C)N(C)C)c1 |  | inactive: 0.905%
18 | CN(C)c1cc(NC(=O)CNC(C)(C)C)c(O)c2c1C[C@H]1C[C@H]3[C@H](N(C)C)C(=O)C(C(N)=O)=C(O)[C@@]3(O)C(=O)C1=C2O | inconclusive [falling, partial curve, poor fit] | 
19 | Cc1ccc(C(=O)c2ccc(CC(=O)O)n2C)cc1 | inconclusive | 
20 | CCCCOCCCC |  | inactive: -0.011%

Row | Structure (SMILES) | Potency | viability change, negative = cytotoxic
21 | CO[C@H]1C[C@@H]2CC[C@@H](C)[C@@](O)(O2)C(=O)C(=O)N2CCCC[C@H]2C(=O)O[C@H]([C@H](C)C[C@@H]2CC[C@@H](O)[C@H](OC)C2)CC(=O)[C@H](C)C=C(C)[C@@H](O)[C@@H](OC)C(=O)[C@H](C)C[C@H](C)/C=C/C=CC=C1C | active: 13.3 µM and active: 26.6 µM | 
22 | CCCC(=O)O[C@]1(C(=O)COC(=O)CC)[C@@H](C)C[C@H]2[C@@H]3CCC4=CC(=O)C=C[C@]4(C)[C@@]3(F)[C@@H](O)C[C@@]21C | inconclusive [rising, full curve, poor fit] | 
23 | CC1(C)Oc2ccc(C#N)cc2[C@@H](N2CCCC2=O)[C@@H]1O | inconclusive [rising, partial curve, poor fit] | 
24 | COc1cc2[nH]c(C)c(CCN3CCN(c4ccccc4)CC3)c2cc1OC | inconclusive | 
25 | NC(=O)c1c(Cl)cccc1Cl |  | inactive: 13.8%
26 | CN(C)CCC(O)(c1ccccc1)c1ccccc1Cl (stereo not given) | inconclusive [falling, partial curve, poor fit] | 
27 | C[C@@H]1CCC2[C@@H](C)[C@@H](O)O[C@@H]3O[C@@]4(C)CC[C@@H]1[C@@]23OO4 (stereo not given in full) | inconclusive [falling, partial curve, poor fit] | 
28 | C=C(C)C(=O)OCCN(C)C |  | inactive: 8.97% [at 95 µM]
29 | CC(=O)c1ccc2c(c1)N(CCCN1CCN(CCO)CC1)c1ccccc1S2 | inconclusive [falling, partial curve] | 
30 | C[N+]1([O-])CCOCC1 |  | inactive: 6%
31 | C=C[C@]1(C)C[C@@H](OC(=O)CSCCN(CC)CC)[C@]2(C)[C@H](C)CC[C@]3(CCC(=O)[C@H]32)[C@@H](C)[C@@H]1O | inconclusive | 
32 | CCCC(=O)Nc1c(I)cc(I)c(CC(CC)C(=O)O)c1I (stereo not given) | inconclusive | 
33 | CC1(S(=O)(=O)O)CC(=O)c2ccccc2C1=O (stereo not given) | inconclusive | 
34 | CCc1ccc2c(c1)N(CC(C)CN(C)C)c1ccccc1S2 (stereo not given) | inconclusive [falling, single point] | 
35 | CC1(C)S[C@@H]2[C@H](NC(=O)[C@H](N)c3ccc(O)cc3)C(=O)N2[C@H]1C(=O)O |  | inactive: -0.879%
36 | CN1CCN(c2cc3c(nn2)Oc2ccccc2N3C)CC1 |  | inactive: -1.46%
37 | CCOc1ccc(NC(=O)OC(C)C)cc1OCC |  | inactive: 14.2%
38 | C[C@H]1C[C@H]2[C@@H]3CCC4=CC(=O)C=C[C@]4(C)[C@@]3(F)[C@@H](O)C[C@]2(C)[C@@]1(O)C(=O)COP(=O)(O)O | inconclusive [rising, partial curve, poor fit] | 
39 | c1ccc(B(c2ccccc2)c2ccccc2)cc1 |  | inactive: -1.89%
40 | COCC1=C(C(=O)OC(C)OC(=O)OC(C)C)N2C(=O)[C@@H](NC(=O)/C(=N\OC)c3csc(N)n3)[C@H]2SC1 (stereo not given in full) | inconclusive [rising, partial curve, poor fit] | 
